Measurements reported in publication PMC11995724, “Antibiotic target discovery by integrated phenotypic and activity-based profiling of electrophilic fragments” (Cell chemical biology, 2025).
The whole screen tested about 3,200 compounds, of which about 75 (2%) showed an effect of 50% or more. The list shows a part of the results.

system: T1, S. aureus MSSA476; design: species or system S. aureus MSSA476 (TSB) or V. cholerae SAD30 (LB); 384-well bacterial growth screen at 25 uM, OD600 relative to DMSO control; conditions: relative growth, OD600, TSB; 25 µM; inhibitor
T1 construct: MSSA476

SMILES | % of control remaining
O=C(CCl)N1CCC(OCc2ccccc2)CC1 [4-H19, 1-[4-(benzyloxy)piperidin-1-yl]-2-chloroethan-1-one] | 111.672%
COCC(C)NC(=O)C(C#N)=Cc1ccc(F)c(C)c1 (stereo not shown) [9-H09, 2-cyano-3-(4-fluoro-3-methylphenyl)-N-(1-methoxypropan-2-yl)prop-2-enamide] | 106.667%
C=CC(=O)NCCc1cnc2c(Cl)cnn2c1 [1-L06, N-(2-{3-chloropyrazolo[1,5-a]pyrimidin-6-yl}ethyl)prop-2-enamide] | 110.769%
C=CC(=O)NCCN1C(=O)SC(=Cc2ccc(Cl)cc2)C1=O [2-C05, N-(2-{5-[(4-chlorophenyl)methylidene]-2,4-dioxo-1,3-thiazolidin-3-yl}ethyl)prop-2-enamide] | 95.3873%
CC(Cl)C(=O)NCc1nc2c(s1)CC(c1ccccc1)CC2 (stereo not shown) [7-A05, 2-chloro-N-[(6-phenyl-4,5,6,7-tetrahydro-1,3-benzothiazol-2-yl)methyl]propanamide] | 74.7253%
C=CC(=O)N(CC)CC(=O)N1CCNC(=O)CC1c1ccccc1 (stereo not shown) [3-E21, N-ethyl-N-[2-oxo-2-(5-oxo-7-phenyl-1,4-diazepan-1-yl)ethyl]prop-2-enamide] | 104.832%
COc1ccc(O)c(C=C(C#N)C(=O)Nc2cccc3ccccc23)c1 [8-N14, 2-cyano-3-(2-hydroxy-5-methoxyphenyl)-N-(naphthalen-1-yl)prop-2-enamide] | 101.909%
N#CC(=Cc1ccc(F)cc1)C(=O)NCCc1cccc(Cl)c1 [8-K06, N-[2-(3-chlorophenyl)ethyl]-2-cyano-3-(4-fluorophenyl)prop-2-enamide] | 83.3195%
Cc1ncccc1NC(=O)[C@H](C)NC(=O)C(C)Cl (stereo partly drawn) [6-D09, 2-chloro-N-[(1S)-1-[(2-methylpyridin-3-yl)carbamoyl]ethyl]propanamide] | 83.3171%
Cn1cc(C=C(C#N)C(=O)NCCc2ccccc2)cn1 [8-L10, 2-cyano-3-(1-methyl-1H-pyrazol-4-yl)-N-(2-phenylethyl)prop-2-enamide] | 117.842%
COc1cc(C)c(C(C)NC(=O)CCl)cc1OC (stereo not shown) [6-M09, 2-chloro-N-[1-(4,5-dimethoxy-2-methylphenyl)ethyl]acetamide] | 116.439%
N#CC(=Cc1cnn(-c2ccc(Cl)cc2)c1)C(=O)NC1CCCCC1 [8-A08, 3-[1-(4-chlorophenyl)-1H-pyrazol-4-yl]-2-cyano-N-cyclohexylprop-2-enamide] | 111.203%
CC(Cl)C(=O)Nc1ccc(C(C)(C)C)cc1 (stereo not shown) [4-G12, N-(4-tert-butylphenyl)-2-chloropropanamide] | 87.2797%
C=CC(=O)N1CCC(C(=O)NCc2ncnn2CC)CC1 [3-P03, N-[(1-ethyl-1H-1,2,4-triazol-5-yl)methyl]-1-(prop-2-enoyl)piperidine-4-carboxamide] | 135.829%
O=C(CCl)Nc1ccccc1C(=O)c1ccccc1 [4-J06, N-(2-benzoylphenyl)-2-chloroacetamide] | 85.7551%
C=CC(=O)NCCC(=O)N1CCC2(CC(=O)c3ccccc3O2)C1 (stereo not shown) [1-F12, N-(3-oxo-3-{4-oxo-3,4-dihydrospiro[1-benzopyran-2,3'-pyrrolidin]-1'-yl}propyl)prop-2-enamide] | 100.923%
COc1ccccc1NC(=O)C(C)Cl (stereo not shown) [5-L20, 2-chloro-N-(2-methoxyphenyl)propanamide] | 99.0893%
COc1ccc(C)cc1NC(=O)C(C)Cl (stereo not shown) [5-P22, 2-chloro-N-(2-methoxy-5-methylphenyl)propanamide] | 87.796%
C=CC(=O)N(Cc1cnn(C2CCC2)c1)C1CCCc2occc21 (stereo not shown) [2-G07, N-[(1-cyclobutyl-1H-pyrazol-4-yl)methyl]-N-(4,5,6,7-tetrahydro-1-benzofuran-4-yl)prop-2-enamide] | 127.763%
CC(=Cc1ccccc1)C=C(C#N)C(=O)Nc1nccs1 [8-F08, 2-cyano-4-methyl-5-phenyl-N-(1,3-thiazol-2-yl)penta-2,4-dienamide] | 126.473%
CC(C)C(NC(=O)CCl)c1ccc(F)cc1 (stereo not shown) [4-E13, 2-chloro-N-[1-(4-fluorophenyl)-2-methylpropyl]acetamide] | 99.0948%
CCOC=C(C#N)C(=O)N1CCN(S(=O)(=O)c2cc[nH]n2)CC1 [9-D06, 3-ethoxy-2-[4-(1H-pyrazole-3-sulfonyl)piperazine-1-carbonyl]prop-2-enenitrile] | 105.468%
CC(Cl)C(=O)NCCc1nc2cc(F)ccc2s1 (stereo not shown) [7-P11, 2-chloro-N-[2-(5-fluoro-1,3-benzothiazol-2-yl)ethyl]propanamide] | 101.099%
C=CC(=O)NCCc1ccccc1OC [2-O03, N-[2-(2-methoxyphenyl)ethyl]prop-2-enamide] | 95.7354%
C=CC(=O)N(CC)CC(=O)N1CCN(c2ccsc2C#N)CC1 [3-L05, N-{2-[4-(2-cyanothiophen-3-yl)piperazin-1-yl]-2-oxoethyl}-N-ethylprop-2-enamide] | 103.091%
C=CC(=O)N1CCCC1c1cn(C)nc1C (stereo not shown) [3-M09, 1-[2-(1,3-dimethyl-1H-pyrazol-4-yl)pyrrolidin-1-yl]prop-2-en-1-one] | 114.236%
CC(C)NC(=O)C(C#N)=Cc1ccc2ccccc2c1 [9-C13, 2-cyano-3-(naphthalen-2-yl)-N-(propan-2-yl)prop-2-enamide] | 101.273%
Cc1cnc(-c2cccc(NC(=O)C(C#N)=Cc3ccco3)c2)o1 [9-M18, 2-cyano-3-(furan-2-yl)-N-[3-(5-methyl-1,3-oxazol-2-yl)phenyl]prop-2-enamide] | 100.674%
